# Experimental data reported in publication PMC4336329 (PLoS ONE, 2015).
# Hit rate of the full screen: of about 310,000 compounds, about 2,200 (0.71%) showed an effect of 50% or more. Effects have a minus sign here. This is one part of the list.
# Biological target: human ether-à-go-go-related gene (hERG) potassium channel (human, UniProt Q12809)
# Assay: primary screen, population patch clamp on CHO cells stably expressing hERG
# Sequence of human ether-à-go-go-related gene (hERG) potassium channel (Q12809 whole entry, looked up): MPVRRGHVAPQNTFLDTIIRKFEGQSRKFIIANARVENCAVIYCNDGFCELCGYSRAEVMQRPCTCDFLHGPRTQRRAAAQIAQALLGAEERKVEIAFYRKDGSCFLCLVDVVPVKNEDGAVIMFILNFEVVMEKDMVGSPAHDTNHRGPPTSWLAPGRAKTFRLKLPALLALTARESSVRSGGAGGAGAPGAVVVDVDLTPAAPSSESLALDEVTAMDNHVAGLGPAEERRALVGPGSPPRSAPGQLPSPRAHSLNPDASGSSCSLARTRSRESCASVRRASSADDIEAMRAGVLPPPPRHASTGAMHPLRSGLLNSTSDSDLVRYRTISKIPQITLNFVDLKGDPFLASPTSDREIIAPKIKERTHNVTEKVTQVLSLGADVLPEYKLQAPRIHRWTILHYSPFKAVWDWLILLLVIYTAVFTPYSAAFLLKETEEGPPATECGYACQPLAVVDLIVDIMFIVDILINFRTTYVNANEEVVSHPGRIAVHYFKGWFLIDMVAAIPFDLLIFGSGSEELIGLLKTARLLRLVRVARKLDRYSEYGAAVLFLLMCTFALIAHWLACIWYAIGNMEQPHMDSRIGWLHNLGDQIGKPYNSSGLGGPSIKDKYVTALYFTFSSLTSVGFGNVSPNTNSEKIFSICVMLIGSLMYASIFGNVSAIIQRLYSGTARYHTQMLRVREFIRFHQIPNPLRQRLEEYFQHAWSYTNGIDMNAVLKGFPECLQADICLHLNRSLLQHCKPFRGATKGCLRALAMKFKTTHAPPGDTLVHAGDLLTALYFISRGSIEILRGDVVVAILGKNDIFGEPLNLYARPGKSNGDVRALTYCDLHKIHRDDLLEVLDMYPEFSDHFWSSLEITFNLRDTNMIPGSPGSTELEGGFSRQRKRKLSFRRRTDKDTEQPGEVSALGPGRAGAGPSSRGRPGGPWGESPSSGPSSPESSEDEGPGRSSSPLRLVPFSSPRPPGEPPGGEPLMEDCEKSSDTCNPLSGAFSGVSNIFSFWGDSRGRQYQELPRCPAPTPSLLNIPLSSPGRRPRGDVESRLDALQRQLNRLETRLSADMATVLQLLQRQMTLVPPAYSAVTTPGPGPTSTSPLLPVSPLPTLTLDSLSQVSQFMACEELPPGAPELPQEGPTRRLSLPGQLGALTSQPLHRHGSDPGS
row,SMILES,"hERG current change (%, negative = inhibition) at 1uM [%]"
1,CSc1nc2c(c(=O)[nH]c(=O)n2C)n1Cc1ccc(Cl)cc1,15.4
2,Cc1ccc(/C=C2\C(=O)NC(=S)N(c3cccc(F)c3)C2=O)o1,17.2
3,CN(CC(=O)Nc1ccccc1Cl)C(=O)C1CCN(C(=O)c2ccc(F)cc2)CC1,0.838
4,O=C(COC(=O)CCCOc1ccccc1)NC1CCS(=O)(=O)C1 (centres unmarked),-10.9
5,COc1ccc(NCc2nnc(SCC(=O)Nc3ccccc3OC)o2)cc1,0.173
6,O=C1CC(NCC2CCCO2)C(=O)N1c1ccc(F)cc1 (centres unmarked),1.73
7,Cc1noc(/C=C/c2ccccn2)c1[N+](=O)[O-],15.9
8,CCOC(=O)CNC(=O)CSc1nc(N)cc(N)n1,10.6
9,O=C(CN1CCc2ccccc2C1)Nc1ccc(F)cc1F,-8.83
10,CSc1ccccc1NC(=O)CN(C)C(=O)Cc1c(F)cccc1Cl,15.1
11,CCCc1n[nH]c(=S)n1Cc1ccco1,12.9
12,COC(=O)CNS(=O)(=O)c1ccc(C)cc1,11.1
13,O=C(N/N=C/c1cc(Cl)cc([N+](=O)[O-])c1O)c1cc(-c2ccccn2)nc2ccccc12,14.1
14,O=C1C=C(c2ccccc2Oc2ccccc2)C[C@@H](c2ccc3c(c2)OCO3)C1,0.52
15,CCOc1ccccc1C(=O)NCC(=O)N(C)Cc1ccccc1C,8
16,O=C(Nc1ccccc1C(=O)N1CCCC1)c1cccc(S(=O)(=O)N2CCCCC2)c1,0.273
17,Clc1cccc(OCc2nc(-c3ccncc3)no2)c1,7.83
18,Cc1nn(CC(=O)NC(=O)c2ccccc2)c(C)c1[N+](=O)[O-],-8.83
19,Cc1cc2cc(CNC(=O)NC3CCCCC3)ccc2[nH]1,8.06
20,CC1CCCC(C)N1NC(=S)Nc1ccc(OC(F)F)cc1 (centres unmarked),-36.5
21,S=C(NCc1ccc2c(c1)OCO2)NC1CCN(Cc2ccccc2)CC1,15.9
22,C/C(=N/NC(=O)c1ccc(C)s1)c1ccncc1,21.4
23,O=C(CSc1n[nH]c(-c2ccccc2)n1)NC1CCCCC1,9.57

row,SMILES,"hERG current change (%, negative = inhibition) at 1uM [%]"
1,CCc1cc2c(SCC(=O)Nc3cc(C)on3)ncnc2s1,2.09
2,COc1ccc(C2NC(=S)NC(O)(C(F)(F)F)C2C(=O)c2cccs2)cc1 (centres unmarked),9.74
3,O=C(C1CCN(S(=O)(=O)N2CCC3(CC2)OCCO3)CC1)N1CCCCC1,8.17
4,NNC(=O)c1ccc(O)cc1O,5.07
5,COc1cccc(-n2nnnc2SCC(=O)NC2CCCCC2)c1,10.2
6,COc1ccc(CC(=O)OCc2cc(=O)n3cc(Br)ccc3n2)cc1OC,0.469
7,COc1ccc(S(=O)(=O)N2CCN(CCOc3ccccc3Cl)CC2)cc1OC,7.22
8,Cc1cc2nc(-c3ccc(SCC(=O)Nc4ccc5c(c4)OCCO5)nc3)[nH]c2cc1C,9.17
9,COc1ccccc1NC(=O)c1sc(Cl)nc1C,7.76
10,Cc1nc(NC(=O)COC(=O)CCC(=O)c2cccs2)c(Cl)cc1Cl,21.6
11,O=C(c1cnc2sccn2c1=O)N1CCc2ccccc2C1,10.2
12,Cc1ccccc1Cn1nnc(C(=O)Nc2cccc(C)c2C)c1N,2.8
13,CSc1ccccc1NC(=O)COC(=O)Cc1cccs1,11.4
14,C=CCn1c(SCC(=O)Nc2c(C)nn(Cc3ccccc3)c2C)nnc1C(O)c1ccccc1 (centres unmarked),6.15
15,CCOC(=O)c1sc(-c2ccc(Br)cc2)cc1N,-2.28
16,Cc1cc(C(F)F)n2nc(C(=O)Nc3cc(C)on3)nc2n1,4.95
17,CSc1ccc(-c2nc(CN3CCCCC3c3cccnc3)c(C)o2)cc1 (centres unmarked),-3.12
18,CCC(=O)c1cn(CC(=O)Nc2ccc(C)cc2)c2ccccc12,11.2
19,COc1ccc(NC(=O)C2CCN(S(=O)(=O)c3ccc(N4CCCC4=O)cc3)CC2)cc1OC,5.61
20,O=c1c2cc(N3CCOCC3)ccc2[nH]c(=S)n1CCCN1CCCCCC1,-8.17
21,COc1cc2c(cc1OC)CN(C(=S)NC(=O)c1ccccc1)CC2,9.98
22,O=C(CNc1cc(S(=O)(=O)N2CCOCC2)ccc1NCC1CCCO1)Nc1ccccc1F (centres unmarked),0.0909
23,CC(=O)c1cccc(NC(=O)/C(=C\c2cccnc2)NC(=O)c2ccc(C)cc2)c1,4.57

row,SMILES,"hERG current change (%, negative = inhibition) at 1uM [%]"
1,CCN(CC)S(=O)(=O)c1cccc(NC(=O)c2cncc(Br)c2)c1,-18.1
2,COc1cc(C2C(C(=O)c3ccco3)=C(O)C(=O)N2c2cc(C)on2)ccc1OCc1ccccc1 (centres unmarked),18.3
3,O=C(NCC(c1ccco1)N1CCCC1)c1cccc(S(=O)(=O)Nc2ccc(Br)cc2)c1 (centres unmarked),10.2
4,CCN(CC(=O)Nc1sc2c(c1C#N)CCC(C)C2)CC(=O)NC1CCS(=O)(=O)C1 (centres unmarked),7.74
5,CCOc1ccc(C2c3c(oc4ccccc4c3=O)C(=O)N2c2ccc(C)cn2)cc1OC (centres unmarked),-0.807
6,CCc1ccccc1N(CC(=O)NC(C)(C)CC)C(=O)CCC(=O)Nc1nccs1,3.04
7,COc1ccc(/C=N\NC(=O)CNC(=O)C2COc3ccccc3O2)cc1[N+](=O)[O-] (centres unmarked),-8.06
8,CCCC1COC(Cn2cncn2)(c2ccc(C)cc2)O1 (centres unmarked),8.8
9,COc1ccc(N(C(C)C(=O)N/N=C(\C)C(C)(C)C)S(C)(=O)=O)cc1 (centres unmarked),17.8
10,COc1ccccc1NC(=O)C1CCCN(S(=O)(=O)c2c(C)noc2C)C1 (centres unmarked),8.54
11,COc1c(C)cc(S(=O)(=O)NCCN2CCOCC2)c(C)c1C,6.69
12,CCOC(=O)c1ccc2[nH]c3c(c2c1)CCCC3NC=O (centres unmarked),13.5
13,CN(C/C=C/C#CC(C)(C)C)Cc1cccc2ccccc12.Cl,11.6
14,OCCCNC(=S)Nc1ccc(Oc2ccccc2)cc1,6.92
15,CCCN(CCC)S(=O)(=O)c1ccc(C(=O)Nc2ccc(S(=O)(=O)Nc3nnc(CC)s3)cc2)cc1,14.5
16,Cn1c(=O)n(CCOc2ccc([N+](=O)[O-])cc2)c2ccccc21,-22
17,Cc1ccc(CCNC(=O)CN2C(=O)COc3ccc(S(=O)(=O)N4CCC(C)CC4)cc32)cc1,18
18,CC(C)=CC(=O)N1CCC(N2CCC(C(=O)N3CCOCC3)CC2)CC1,14
19,Br.COc1ccc(Nc2nc(-c3sc(NC(C)=O)nc3C)cs2)cc1,1.94
20,Br.CCOc1ccc(-c2csc(NNC3=NCCCCC3)n2)cc1,2.56
21,CCCCC(=O)N(CCOC)c1nnc(-c2cccnc2)s1,11.3
22,O=C(CN1C(=O)C2C3C=CC(C3)C2C1=O)N1CCc2ccccc2C1 (centres unmarked),8.92
23,CCC(C)N(C(=O)Cn1nnc(-c2ccc(F)cc2)n1)C1CCS(=O)(=O)C1 (centres unmarked),12.3

row,SMILES,"hERG current change (%, negative = inhibition) at 1uM [%]"
1,Cc1ccsc1C1C(C#N)=C(N)Oc2n[nH]c(C)c21 (centres unmarked),13.9
2,Cc1nn(CCO)c(C)c1Oc1ccccc1O,8.63
3,N#Cc1ccccc1NC(=O)CSc1nnc(-c2ccccc2)n1-c1ccccc1,7.56
4,O=C(CN1C(=O)CSc2ccc(S(=O)(=O)N3CCCCC3)cc21)NCc1ccccc1Cl,12.8
5,CCc1nnc(SCC(=O)Nc2nnc(C)s2)n1CC1CCCO1 (centres unmarked),7.27
6,CN(C)c1ccc(C2=NOC(CN3C(=O)c4ccccc4S3(=O)=O)C2)cc1 (centres unmarked),11.2
7,O=C(Cn1cc(C(=O)c2cccs2)c2ccccc21)NCc1cccs1,5.24
8,COC(=O)c1c(NC(=O)Cc2ccccc2)sc2c1CCN(C(C)C)C2.Cl,-8.3
9,Nc1c(C(=O)CSc2nc3ccccc3o2)c(=O)[nH]c(=O)n1C1CC1,8.44
10,CN(C)C(=O)c1cn(CCC#N)nc1-c1ccc2ccccc2c1,18
11,CCc1ccc(NC(=O)C(C)OC(=O)c2ccc(N3CCCC3)c([N+](=O)[O-])c2)cc1 (centres unmarked),-6.79
12,Cc1cc(C)n2nc(CC(=O)NNC(=O)c3ccc(N(C)C)cc3)nc2n1,15.7
13,COc1ccccc1-c1cc(C(=O)NC(C)c2ccccc2)no1 (centres unmarked),10.3
14,CC1CCCN(C(=S)SCC(=O)O)C1 (centres unmarked),4.89
15,CC(C)CCOc1ccccc1C(N)=O,13.6
16,COc1ccc(-n2nc3ccccc3n2)cc1,-5.14
17,Nc1c(C(=O)NCc2ccco2)nnn1CC(=O)Nc1ccc2c(c1)OCO2,-15.3
18,CCN1C(=O)[C@H]2[C@@H](c3ccc(C)cc3)N3C(=O)N(c4ccc(C)cc4)C(=O)[C@@]3(CC)[C@H]2C1=O,8.64
19,CCC(CC)C(=O)N=C1SC2CS(=O)(=O)CC2N1CCc1ccc(OC)c(OC)c1 (centres unmarked),2.8
20,CCCn1c(SCC(=O)Nc2cc(S(=O)(=O)N3CCOCC3)ccc2OC)n[nH]c1=O,6.72
